According to paper PMC9911399, “Two distinct binding modes provide the RNA-binding protein RbFox with extraordinary sequence specificity”:
Numbering of substitutions follows the chain as printed; changes in the protein carry UniProt numbers. The list shows a part of the results.

T1: RBFOX1 RRM (Homo sapiens, UniProt Q9NWB1 109-208)
T1 sequence: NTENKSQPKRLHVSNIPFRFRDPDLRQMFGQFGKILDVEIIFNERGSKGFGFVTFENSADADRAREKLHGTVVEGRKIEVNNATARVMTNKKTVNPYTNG

B1: UUUCCGA (DNA:RNA)
RNA: GGGAGACCGGAAUUCAGAUUGUCCUUUCCGAUUAAAUCCCGUCGUAGCCACCA
DNA 1: CAATCTGAATTCCGGTCTCCC
DNA 2: TGGTGGCTACGACGGGATT
B2: UCUAGCA (DNA:RNA)
RNA: B1 RNA with U26C, C28A, C29G, G30C
DNA 1: CAATCTGAATTCCGGTCTCCC
DNA 2: TGGTGGCTACGACGGGATT
B3: UGUAAAC (DNA:RNA)
RNA: B1 RNA with U26G, C28A, C29A, G30A, A31C
DNA 1: CAATCTGAATTCCGGTCTCCC
DNA 2: TGGTGGCTACGACGGGATT
B4: CAGUUUG (DNA:RNA)
RNA: GGGAGACCGGAAUUCAGAUUGUCCCAGUUUGUUAAAUCCCGUCGUAGCCACCA
DNA 1: CAATCTGAATTCCGGTCTCCC
DNA 2: TGGTGGCTACGACGGGATT
B5: AUUAUCC (DNA:RNA)
RNA: B1 RNA with U25A, C28A, C29U, G30C, A31C
DNA 1: CAATCTGAATTCCGGTCTCCC
DNA 2: TGGTGGCTACGACGGGATT
B6: CCCCUCU (DNA:RNA)
RNA: B4 RNA with A26C, G27C, U28C, U30C, G31U
DNA 1: CAATCTGAATTCCGGTCTCCC
DNA 2: TGGTGGCTACGACGGGATT
B7: CCGGCCA (DNA:RNA)
RNA: B4 RNA with A26C, U28G, U29C, U30C, G31A
DNA 1: CAATCTGAATTCCGGTCTCCC
DNA 2: TGGTGGCTACGACGGGATT
B8: AAGGAGU (DNA:RNA)
RNA: B4 RNA with C25A, U28G, U29A, U30G, G31U
DNA 1: CAATCTGAATTCCGGTCTCCC
DNA 2: TGGTGGCTACGACGGGATT
B9: UAUAGGC (DNA:RNA)
RNA: B1 RNA with U26A, C28A, C29G, A31C
DNA 1: CAATCTGAATTCCGGTCTCCC
DNA 2: TGGTGGCTACGACGGGATT
B10: UUCCCGC (DNA:RNA)
RNA: B1 RNA with U27C, A31C
DNA 1: CAATCTGAATTCCGGTCTCCC
DNA 2: TGGTGGCTACGACGGGATT
B11: UCUAGUA (DNA:RNA)
RNA: B1 RNA with U26C, C28A, C29G, G30U
DNA 1: CAATCTGAATTCCGGTCTCCC
DNA 2: TGGTGGCTACGACGGGATT
B12: UACCAAU (DNA:RNA)
RNA: B1 RNA with U26A, U27C, C29A, G30A, A31U
DNA 1: CAATCTGAATTCCGGTCTCCC
DNA 2: TGGTGGCTACGACGGGATT
B13: CCGGCGG (DNA:RNA)
RNA: B4 RNA with A26C, U28G, U29C, U30G
DNA 1: CAATCTGAATTCCGGTCTCCC
DNA 2: TGGTGGCTACGACGGGATT
B14: GAGUAAU (DNA:RNA)
RNA: B4 RNA with C25G, U29A, U30A, G31U
DNA 1: CAATCTGAATTCCGGTCTCCC
DNA 2: TGGTGGCTACGACGGGATT
B15: UCUAAUG (DNA:RNA)
RNA: B4 RNA with C25U, A26C, G27U, U28A, U29A
DNA 1: CAATCTGAATTCCGGTCTCCC
DNA 2: TGGTGGCTACGACGGGATT
B16: CGAGCCG (DNA:RNA)
RNA: B4 RNA with A26G, G27A, U28G, U29C, U30C
DNA 1: CAATCTGAATTCCGGTCTCCC
DNA 2: TGGTGGCTACGACGGGATT
B17: CUGAUUG (DNA:RNA)
RNA: B4 RNA with A26U, U28A
DNA 1: CAATCTGAATTCCGGTCTCCC
DNA 2: TGGTGGCTACGACGGGATT
B18: CUUCCGU (DNA:RNA)
RNA: B1 RNA with U25C, A31U
DNA 1: CAATCTGAATTCCGGTCTCCC
DNA 2: TGGTGGCTACGACGGGATT
B19: CUGCCCC (DNA:RNA)
RNA: B1 RNA with U25C, U27G, G30C, A31C
DNA 1: CAATCTGAATTCCGGTCTCCC
DNA 2: TGGTGGCTACGACGGGATT
B20: UGGAGGG (DNA:RNA)
RNA: B4 RNA with C25U, A26G, U28A, U29G, U30G
DNA 1: CAATCTGAATTCCGGTCTCCC
DNA 2: TGGTGGCTACGACGGGATT
B21: UUCAUCG (DNA:RNA)
RNA: B4 RNA with C25U, A26U, G27C, U28A, U30C
DNA 1: CAATCTGAATTCCGGTCTCCC
DNA 2: TGGTGGCTACGACGGGATT
B22: CCCUUUU (DNA:RNA)
RNA: B4 RNA with A26C, G27C, G31U
DNA 1: CAATCTGAATTCCGGTCTCCC
DNA 2: TGGTGGCTACGACGGGATT
B23: GAUGCAC (DNA:RNA)
RNA: B1 RNA with U25G, U26A, C28G, G30A, A31C
DNA 1: CAATCTGAATTCCGGTCTCCC
DNA 2: TGGTGGCTACGACGGGATT
B24: CAUACUC (DNA:RNA)
RNA: B4 RNA with G27U, U28A, U29C, G31C
DNA 1: CAATCTGAATTCCGGTCTCCC
DNA 2: TGGTGGCTACGACGGGATT
B25: CGUCGGG (DNA:RNA)
RNA: B1 RNA with U25C, U26G, C29G, A31G
DNA 1: CAATCTGAATTCCGGTCTCCC
DNA 2: TGGTGGCTACGACGGGATT
B26: CACACGC (DNA:RNA)
RNA: B4 RNA with G27C, U28A, U29C, U30G, G31C
DNA 1: CAATCTGAATTCCGGTCTCCC
DNA 2: TGGTGGCTACGACGGGATT
B27: GGUAGAG (DNA:RNA)
RNA: B4 RNA with C25G, A26G, G27U, U28A, U29G, U30A
DNA 1: CAATCTGAATTCCGGTCTCCC
DNA 2: TGGTGGCTACGACGGGATT
B28: AGGGGCC (DNA:RNA)
RNA: B4 RNA with C25A, A26G, U28G, U29G, U30C, G31C
DNA 1: CAATCTGAATTCCGGTCTCCC
DNA 2: TGGTGGCTACGACGGGATT
B29: CGACAAG (DNA:RNA)
RNA: B4 RNA with A26G, G27A, U28C, U29A, U30A
DNA 1: CAATCTGAATTCCGGTCTCCC
DNA 2: TGGTGGCTACGACGGGATT
B30: UUUCAGG (DNA:RNA)
RNA: B1 RNA with C29A, A31G
DNA 1: CAATCTGAATTCCGGTCTCCC
DNA 2: TGGTGGCTACGACGGGATT
B31: CAAUUGU (DNA:RNA)
RNA: B4 RNA with G27A, U30G, G31U
DNA 1: CAATCTGAATTCCGGTCTCCC
DNA 2: TGGTGGCTACGACGGGATT

Each binder was assayed against T1, RBFOX1 RRM (assay: EMSA; HiTS-Eq, 1 nM pool, 10 min; buffer printed only for the single-RNA assays: 10 mM Tris pH 7.5, 150 mM NaCl, 3.4 mM EDTA, 0.001% NP-40, 30 C). Conditions: tags: His6 N-terminal (pET28a); label: 5' 32P.
Procedure, shortened: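 Relative association constants, normalised to the cognate motif, were derived by comparing read counts of each RNA species with those of the control reaction. The RNA sequenced was the free fraction, separated by 8% native PAGE after a 10 min equilibration in 50 µL of 1 nM 5′-radiolabelled RNA (7 randomized nucleotides) with increasing concentrations of purified wild-type or mutant RbFox RRM.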
In the case of B1, the binding signal is reported as 0.00826 KA relative to UGCAUGU. In the case of B2, the binding signal is reported as 0.0115 KA relative to UGCAUGU. B3 was tested, and the binding signal was 0.0104 KA relative to UGCAUGU. In the case of B4, the binding signal is reported as 0.0144 KA relative to UGCAUGU. B5 was tested, and the binding signal was 0.00128 KA relative to UGCAUGU. With B6 the binding signal was 0.00568 KA relative to UGCAUGU. B7 was tested, and the binding signal was 0.00886 KA relative to UGCAUGU. For B8, the binding signal was 0.00853 KA relative to UGCAUGU. For B9, the binding signal was 0.00986 KA relative to UGCAUGU. For B10, the binding signal was 0.0116 KA relative to UGCAUGU. For B11, the binding signal was 0.00831 KA relative to UGCAUGU. In the case of B12, the binding signal is reported as 0.000848 KA relative to UGCAUGU. For B13, the binding signal was 0.0143 KA relative to UGCAUGU. B14 was tested, and the binding signal was 0.00941 KA relative to UGCAUGU. B15 was tested, and the binding signal was 0.0118 KA relative to UGCAUGU. For B16, the binding signal was 0.00714 KA relative to UGCAUGU. With B17 the binding signal was 0.0256 KA relative to UGCAUGU. For B18, the binding signal was 0.00587 KA relative to UGCAUGU. With B19 the binding signal was 0.00906 KA relative to UGCAUGU. B20 was tested, and the binding signal was 0.0152 KA relative to UGCAUGU. In the case of B21, the binding signal is reported as 0.00625 KA relative to UGCAUGU. For B22, the binding signal was 0.00372 KA relative to UGCAUGU. With B23 the binding signal was 0.0171 KA relative to UGCAUGU. With B24 the binding signal was 0.00303 KA relative to UGCAUGU. B25 was tested, and the binding signal was 0.00432 KA relative to UGCAUGU. B26 was tested, and the binding signal was 0.00179 KA relative to UGCAUGU. In the case of B27, the binding signal is reported as 0.0104 KA relative to UGCAUGU. In the case of B28, the binding signal is reported as 0.0237 KA relative to UGCAUGU. For B29, the binding signal was 0.00637 KA relative to UGCAUGU. B30 was tested, and the binding signal was 0.00987 KA relative to UGCAUGU. With B31 the binding signal was 0.00723 KA relative to UGCAUGU.
